Reference: ChEMBL document CHEMBL3576814, “N (1)-Fluoroalkyltryptophan Analogues: Synthesis and in vitro Study as Potential Substrates for Indoleamine 2,3-Dioxygenase” (ACS Med Chem Lett, 2015)

How the values were obtained:
[1] = test system: NC(Cc1cn(CCF)c2ccccc12)C(=O)O; conditions: Homo sapiens
[2] = test system: N[C@@H](Cc1c[nH]c2ccc(O)cc12)C(=O)O; conditions: Homo sapiens
[3] = test system: N[C@@H](Cc1c[nH]c2ccccc12)C(=O)O; conditions: Homo sapiens
[4] = test system: N[C@@H](Cc1c[nH]c2ccc(O)cc12)C(=O)O; conditions: Homo sapiens; remark: listed apart in the source
[5] = test system: N[C@@H](Cc1c[nH]c2ccccc12)C(=O)O; conditions: Homo sapiens; remark: listed apart in the source
[6] = test system: NC(Cc1cn(CCF)c2ccccc12)C(=O)O; assay: Activity of recombinant human IDO assessed as formation of N-formyl-L-kynurenine at 37 degC at pH 6.5 after 5 to 15 mins by HPLC with fluorescence detection method
How it was run: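 Recombinant human IDO at 37 °C, pH 6.5. Perchloric acid is added after incubation to hydrolyse N-formyl-kynurenine derivatives to kynurenines. Substrate is separated by HPLC/UPLC and quantified by fluorescence detection (method B, [S] ≥ 2 μM). kcat/Km is derived from substrate concentration versus incubation time, and Km from initial rates.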

Indoleamine 2,3-dioxygenase 1 (Homo sapiens) (no sequence given)
kcat/Km [1]: 5.8 ×10² /M/s | kcat/Km [2]: 21 ×10² /M/s | kcat/Km [3]: 2100 ×10² /M/s | Km [4]: 17 µM | Km [5]: 15 µM | Km [6]: 70 µM
